This passage reports relative growth results from the supplement of paper PMC9446081.

Molecules are shown by their SMILES. Among all 39,000 compounds or so, about 220 (0.56%) showed activity. The list shows a part of the results.
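Also: static incubation at 37 °C against the wild-type strain, values averaged over two biological replicates.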

This assay deals with Escherichia coli K-12 BW25113. Kind of assay: relative growth (OD600 normalised to plate interquartile mean) (fraction); higher = less growth inhibition, active = 0.2 or less. The following applies: 50 µM; LB; incubation time: overnight (16-24 h).
As to `CCCCCCCCCCCCCCCCOc1nc2ccc(C)cc2c(=O)o1`, the relative growth was inactive: 1.02. The figure for `C[C@@H]1CN([C@@H](C)CO)C(=O)c2cccc(NS(=O)(=O)c3ccc(Cl)cc3)c2O[C@@H]1CN(C)S(C)(=O)=O` is inactive: 0.962; for `O=C(N1CCOCC1)[C@@]1(CCS(=O)(=O)c2ccccc2)COC(c2ccc(OCCCO)cc2)=N1` it is inactive: 0.941; for `O=C(Nc1cccc2cccnc12)[C@@H]1[C@H](c2ccc(Br)cc2)CC(=O)N1c1ccc(C(F)(F)F)cc1` it is inactive: 1.03. Under `C[C@@H]1CN([C@H](C)CO)C(=O)Cc2cc(NC(=O)c3ccncc3)ccc2O[C@H]1CN(C)S(=O)(=O)c1ccccc1` stands inactive: 0.973; under `COc1cccc(NC(=O)N[C@H]2CC[C@@H](CC(=O)N3CCN(C)CC3)O[C@@H]2CO)c1`, inactive: 0.986; under `CC(=O)N(C)C[C@H]1Oc2ncc(C#C[C@H](C)O)cc2C(=O)N([C@H](C)CO)C[C@@H]1C`, inactive: 0.98. Under `C[C@@H]1CN([C@H](C)CO)C(=O)c2cccc(NC(=O)C3CCOCC3)c2O[C@@H]1CN(C)C(=O)Nc1ccccc1` stands inactive: 1; under `Cc1noc(C)c1NC(=O)Nc1ccc2c(c1)C(=O)N([C@@H](C)CO)C[C@@H](C)[C@H](CN(C)C(=O)Nc1cccc3ccccc13)OCCCC[C@@H](C)O2`, inactive: 0.989. Take `C[C@@H]1CN([C@@H](C)CO)C(=O)Cc2cc(NC(=O)CCC(F)(F)F)ccc2O[C@H]1CN(C)Cc1ccc(C(F)(F)F)cc1`: the relative growth is inactive: 1.01. For the compound `C[C@@H]1CN([C@H](C)CO)C(=O)c2cc(NC(=O)Nc3ccc4c(c3)OCO4)ccc2O[C@H]1CN(C)Cc1ccc(C(F)(F)F)cc1`, the relative growth was inactive: 0.98.

As for `C[C@@H]1CN([C@@H](C)CO)C(=O)c2cc(NC(=O)c3ccncc3)ccc2O[C@@H](C)CCCCO[C@@H]1CN(C)S(C)(=O)=O`, the relative growth was inactive: 0.996. The figure for `Nc1nc(/C(=C/CC(=O)O)C(=O)N[C@@H]2C(=O)N3C(C(=O)O)=CCS[C@H]23)cs1` is inactive: 1.01.

As to `C=CCOC(=O)[C@H]1[C@@H]2C(=O)O[C@@H](c3ccccc3)[C@@H](c3ccccc3)N2[C@@H](c2ccc(OCCOC(=O)[C@H]3C[C@H]4C(=O)N5CCC[C@H]5C(=O)N4[C@H]3c3ccc(O)cc3)cc2)[C@]12C(=O)Nc1ccccc12`, the relative growth is inactive: 1.07. The figure for `Cc1ccc(S(=O)(=O)N(C)C[C@@H]2Oc3cc(C#Cc4ccncc4)ccc3S(=O)(=O)N([C@@H](C)CO)C[C@H]2C)cc1` is inactive: 1.02; for `C[C@@H]1CN([C@@H](C)CO)S(=O)(=O)c2ccc(C#Cc3ccccc3)cc2O[C@@H]1CN(C)S(C)(=O)=O` it is inactive: 1.05; for `COc1ccc(NC(=O)Nc2ccc3c(c2)C(=O)N([C@H](C)CO)C[C@@H](C)[C@H](CN(C)Cc2ccc(C(F)(F)F)cc2)O3)cc1` it is inactive: 0.976. The figure for `COc1cnc(SC)n(C)c1=O` is inactive: 0.913; for `CO[C@H]1CN(C)C(=O)c2ccc(NC(=O)Nc3cccc(Cl)c3)cc2OC[C@H](C)N(C(=O)Nc2c(C)noc2C)C[C@@H]1C` it is inactive: 0.988. As to `CN1C(=O)c2cc(NC(=O)C3CCOCC3)ccc2OC[C@H]2O[C@H](CC(=O)NCc3ccc4c(c3)OCO4)CC[C@@H]21`, the relative growth was inactive: 0.981. Under `CC(=O)OC1CCC2(C)C(CCC3(C)C2C2OC2C24OC(=O)C5(CCC(C)C(C)C52)CCC34C)C1(C)C` (configuration not stated) stands inactive: 0.925; under `C[C@@H]1CN([C@@H](C)CO)C(=O)c2cc(Br)cnc2O[C@@H]1CN(C)C(=O)CN1CCOCC1`, inactive: 1.03; under `Cc1noc(C)c1S(=O)(=O)N(C)C[C@H]1Oc2ccc(NS(=O)(=O)c3ccc(Cl)cc3)cc2CC(=O)N([C@H](C)CO)C[C@H]1C`, inactive: 0.996. As to `C[C@@H]1CN([C@@H](C)CO)C(=O)c2cc(NC(=O)CCCN(C)C)ccc2O[C@H]1CN(C)S(=O)(=O)c1ccccc1`, the relative growth is inactive: 1. The figure for `CCOP(=O)(CC(=O)O[C@H]1[C@@H]2OC(=O)[C@@H](Cc3ccc4ccccc4c3)C/C=C\C[C@H](Cc3ccc4ccccc4c3)C(=O)O[C@H]2[C@@H](OC)O[C@@H]1COC(=O)NCCCCCC(=O)NO)OCC` is inactive: 0.881. The figure for `C[C@@H]1CN([C@@H](C)CO)C(=O)c2cc(NC(=O)Nc3ccc(C(F)(F)F)cc3)ccc2O[C@@H](C)CCCCO[C@@H]1CN(C)Cc1ccncc1` is inactive: 1.01.

Consider `COc1ccc(CN(C)C[C@@H]2OCCCC[C@H](C)Oc3ccc(NC(=O)Nc4ccc(OC)cc4)cc3C(=O)N([C@H](C)CO)C[C@@H]2C)cc1`, for which the relative growth is inactive: 1.03. Under `COc1ccc(S(=O)(=O)Nc2ccc3c(c2)C(=O)N([C@H](C)CO)C[C@H](C)[C@H](CN(C)Cc2ccc(C(F)(F)F)cc2)OCCCC[C@H](C)O3)cc1` stands inactive: 1.01. The figure for `C[C@@H]1CCCCO[C@@H](CN(C)C(=O)NC2CCCCC2)[C@H](C)CN([C@H](C)CO)C(=O)c2cc(NS(=O)(=O)c3ccc(Cl)cc3)ccc2O1` is inactive: 1.03; for `CNC[C@@H]1OCCCC[C@H](C)Oc2ccc(NC(=O)Nc3ccc(C(F)(F)F)cc3)cc2C(=O)N([C@@H](C)CO)C[C@@H]1C` it is inactive: 0.943; for `Cc1noc(C)c1NC(=O)Nc1ccc2c(c1)C(=O)N([C@H](C)CO)C[C@H](C)[C@@H](CN(C)Cc1ccc(Cl)c(Cl)c1)OCCCC[C@H](C)O2` it is inactive: 0.986.

In the case of `N[C@@H](C(=O)O)c1ccc(O)cc1`, the relative growth is inactive: 0.94.

Regarding `CC(C)NC(=O)N(C)C[C@H]1Oc2ccc(NC(=O)Cn3cnnn3)cc2CC(=O)N([C@@H](C)CO)C[C@H]1C`, the relative growth was inactive: 0.995.

As to `C[C@@H]1CN([C@H](C)CO)C(=O)c2cc(/C=C/c3ccccc3)cnc2O[C@H]1CN(C)C(=O)Nc1ccc(C(F)(F)F)cc1`, the relative growth was inactive: 0.999. Consider `O=C(CCNCCO)c1ccccc1`, for which the relative growth was inactive: 0.952. The figure for `COc1ccc(CN(C)C[C@H]2OCCCC[C@@H](C)Oc3ccc(NC(=O)Cc4ccccc4)cc3C(=O)N([C@H](C)CO)C[C@@H]2C)cc1` is inactive: 0.995; for `Cc1ccc(NC(=O)n2c3ccccc3c3ccccc32)cc1` it is inactive: 0.991.
